# Data from PMC12040169 (PLOS Biology, 2025).
# This is one part of the list.
# Test system: T1, C. trachomatis L2/434/Bu expressing GFP (CTL2-GFP)
# T1 construct: L2/434/Bu GFP intracellular growth in HeLa cells
# Set-up: species or system HeLa; C. trachomatis total inclusion area by high-content imaging, normalised to DMSO
# Conditions: total inclusion area; 28.5 h, 10 µM; inhibitor
# Summary of the method: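 Post-fluorescence-read fixation, DNA staining with Hoechst and high-content imaging; GFP inclusion area and number per well, and nuclei counts, used as proxies for bacterial growth and host viability.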
row,Structure (SMILES),% of control remaining
1,Sc1nnc(COc2ccc(-c3ccccc3)cc2)n1-c1ccccc1 [CBK264964],124.044
2,CS(=O)(=O)Nc1cc(-c2noc([C@@H]3CCCN3C3CCOCC3)n2)ccn1 [CBK288887],99.1311
3,CCC(Sc1nnc2c3ccccc3n(C)c2n1)C(=O)Nc1sc2c(c1C#N)CCCC2 (stereo not shown) [CBK263031],88.7684
4,Cc1ccc2nc(C(=O)O)cc(C(=O)O)c2c1 [CBK261174],90.9949
5,O=C(CNC(=O)c1cccc(F)c1)N/N=C1/C(=O)N(Cc2ccc3c(c2)OCO3)c2ccccc21 [CBK263519],79.8548
6,COc1ccc(C(=O)N2CCC3(CCCN(C(=O)Cc4ccc(Cl)c(Cl)c4)C3)C2)cc1OC (stereo not shown) [CBK131654],103.242
7,O=C(COc1ccc(S(=O)(=O)NC2CCCCC2)cc1)Nc1cccc2ccccc12 [CBK266023],91.6808
8,O=C(CSc1nnc(-c2ccncc2)n1-c1ccccc1)N1CCN(Cc2ccccc2)CC1 [CBK267240],100.778
9,COc1ccc(Br)cc1S(=O)(=O)NCCCN1CCOCC1 [CBK264050],107.333
10,Cc1c(C2CC(C(F)(F)F)n3nccc3N2)cnn1C (stereo not shown) [CBK288015],91.5205
11,CCOC(=O)CNC(=O)N1CCCC1c1nc(-c2ccccc2)c2ccccn12 (stereo not shown) [CBK046502],79.1713
12,COc1ccc(CCN2C(=O)CC(C(=O)O)S/C2=N\c2ccccc2)cc1 (stereo not shown) [CBK286606],107.178
13,O=P(O)(CN1CCOCC1)CN1CCOCC1 [CBK260914],81.9643
14,O=C(O)CC1c2ccccc2Oc2ccccc21 [CBK261836],91.5936
15,COc1nccnc1N1CCN(CCc2ccccc2)CC1 [CBK084228],107.054
16,CCOC(=O)N1CCC(NS(=O)(=O)Cc2ccccc2[N+](=O)[O-])CC1 [CBK045467],38.6895
17,CCC(NC(=O)Cc1c(C)nc(SC)[nH]c1=O)c1ccc(F)cc1 (stereo not shown) [CBK282653],105.101
18,O=C(Nc1ccccc1)N(O)CC(O)COc1ccccc1 (stereo not shown) [CBK288399],99.2229
19,O=C(NCC1CCCO1)NC(=O)c1nsc2ccccc12 (stereo not shown) [CBK019827],37.8592
20,COc1ccc(-n2nc3cc(C)c(NC(=S)NC(=O)/C=C/c4ccco4)cc3n2)cc1 [CBK264359],104.964
21,COc1ccc(NC(=O)CSc2nc3c(c(-c4cccs4)c2C#N)CN(C)CC3)cc1OC [CBK267444],86.0123
22,O=C(CSc1nc2ccccc2[nH]1)c1ccc2ccccc2c1 [CBK261739],83.4681
23,CC(C)(C)OC(=O)N1CCC(c2cc(=O)n3c(n2)CCCCC3)C1 (stereo not shown) [CBK283415],84.1363
24,COc1ccccc1CCC(=O)Nc1cnc(-c2ccc(F)cc2)c(-c2ccco2)n1 [CBK037002],109.996
25,CC(C)(CN1CCOCC1)NC(=O)c1cnc2cc(C(F)(F)F)ccc2c1O [CBK107429],110.102
26,COc1cc(CCc2cc(O)n3nc(-c4cccc(C)c4)c(C)c3n2)on1 [CBK285691],114.344
27,O=C(COC(=O)c1cc(O)nc2ccccc12)c1ccccc1Cl [CBK265524],117.557

row,Structure (SMILES),% of control remaining
1,COc1cccc(C(=O)N2CCCC2c2cc3cccnc3[nH]2)c1 (stereo not shown) [CBK285082],86.7641
2,O=S(=O)(Nc1cc(F)cc(C(F)(F)F)c1)c1cc2c(N3CCNCC3)nccc2s1 [CBK038102C],109.814
3,CC1CCCC(C)N1S(=O)(=O)c1ccc(NS(=O)(=O)c2cccc(C(=O)O)c2)cc1 (stereo not shown) [CBK296944],94.1013
4,CNc1nc(NC(C#N)c2ccccc2)ncc1N (stereo not shown) [CBK174783],69.9492
5,CN1CCN(CC(O)COCc2ccc3c(c2)OCO3)CC1 (stereo not shown) [CBK278260C],113.998
6,CN(C)C(=O)Cn1nc(-c2cc3c(s2)CCCC3)oc1=O [CBK283905],106.614
7,O=C(C1CCCO1)N1CCCC(c2cc3cccnc3[nH]2)C1 (stereo not shown) [CBK284978],61.4757
8,N#CCSc1nnc(NC(=O)Nc2ccccc2)s1 [CBK028792],56.9382
9,COc1ccc(C(C)C)cc1-c1cncc(NCc2ccc3c(c2)OCO3)n1 [CBK065348],59.9402
10,O=C(Nc1ccc2[nH]ccc2c1)c1ccccc1Nc1cccc(C(F)(F)F)c1 [CBK149583],46.2592
11,Cc1ccc2nc(COC(=O)c3ccc(Cn4nnc5ccccc54)cc3)cn2c1 [CBK297923],100.81
12,O=c1ccc2ccc(-c3ccc(OC(F)(F)F)cc3)nc2[nH]1 [CBK073720],52.51
13,Cc1nnc(SCC(=O)Nc2ccc(CN3CCOCC3)cc2)n1C [CBK306092],47.0695
14,CC12CCC(C(=O)Nc3ccccc3)(OC1=O)C2(C)C (stereo not shown) [CBK018129],33.8796
15,CC(=O)N1CC[C@H]2NC(=O)CNC(=O)C3(CCCC[C@H]2C1)CCN(C(=O)CC1CCOCC1)CC3 [CBK292030],120.379
16,C=CCOc1ccc2ccccc2c1CNc1nc[nH]n1 [CBK267296],114.99
17,CNCc1cc(Br)ccc1OC [CBK027857],16.1689
18,FC(F)(F)c1ccc(OCc2ccc(Cl)c(Cl)c2)nc1 [CBK115831],96.9333
19,Clc1cccc(-c2cn3ccnc3c(NCc3cccnc3)n2)c1 [CBK066237],88.2149
20,O=C(CSc1nnc(-c2ccccc2O)n1Cc1ccccc1)NC12CC3CC(CC(C3)C1)C2 [CBK266075],101.871
21,CCOC(=O)CNS(=O)(=O)c1cccc2cccnc12 [CBK034440],93.7726
22,CCOC(=O)C1CCCN(CCC(=O)Nc2ccccc2)C1 (stereo not shown) [CBK264192C],104.73
23,O=C(O)c1cc(NC(=O)c2cccc(N3C(=O)c4ccc([N+](=O)[O-])cc4C3=O)c2)cc(C(=O)O)c1 [CBK261394],96.9281
24,NS(=O)(=O)c1ccccc1NC(=O)NC1CCCCC1 [CBK016919],122.321
25,COc1cc([N+](=O)[O-])ccc1NC(=O)NCc1ccco1 [CBK266855],86.0994
26,COc1ccc(CN(C(=O)CCN2C(=O)c3ccccc3S2(=O)=O)c2ccccc2O)cc1 [CBK265973],48.569
27,COc1ccc(-c2nc3cc(NC(=O)COc4ccccc4[N+](=O)[O-])ccc3o2)cc1Cl [CBK263412],107.594

row,Structure (SMILES),% of control remaining
1,CCc1ccc(NC(=O)CN2CCN(c3ccccc3F)CC2)cc1 [CBK307549],23.1001
2,Cc1nc(-c2cccnc2)sc1C(=O)NC(C)C1CC2CCC1C2 (stereo not shown) [CBK281637],104.404
3,O=C(O)C(Cc1ccccc1)Nc1ncnc2sc3c(c12)CCC3 (stereo not shown) [CBK265266],108.212
4,CCCN1C(C)=NS(=O)(=O)c2cc(C(=O)O)ccc21 [CBK287251],42.4645
5,COC(=O)c1ccc(NC(=O)N2CCCCC2CCn2ccnc2)cc1 (stereo not shown) [CBK307195],114.903
6,CN(CC(=O)Nc1sc2c(c1C#N)CCCC2)Cc1cnn(C)c1 [CBK304618],84.7769
7,Cc1cc(Cc2cnc(NC(=O)C3CCS(=O)(=O)C3)s2)ccc1Br (stereo not shown) [CBK298281],95.7635
8,O=C(CO)N1CC2(CCN(Cc3ccc(Cl)c(Cl)c3)CC2)c2ccccc21 [CBK131495],74.9375
9,CCN(CC)C(=O)CN1CCCN(c2cc(OCc3cc(C)on3)ncn2)CC1 [CBK083337T],51.5062
10,Cc1ccc(S(=O)(=O)NCC23C=CC(O2)C2C(=O)N(Cc4ccccc4)C(=O)C23)cc1 (stereo not shown) [CBK261170],85.0078
11,O=C(OCc1ccccc1)N1CCC(n2ccn(C(=O)CCC3CCCC3)c2=O)CC1 [CBK106670],91.8057
12,Nc1ncnc2c1nc1n2[C@H]2C[C@@H](O)[C@H](O2)[C@H]1O [CBK201183],97.1307
13,COC(=O)c1ccccc1S(=O)(=O)n1c(=O)n(CCc2c[nH]c3ccccc23)c2ccccc21 [CBK106509],98.6911
14,CC(C)(C)c1ccc(-c2cnc3nc(O)ccc3c2)cc1 [CBK081284],56.6907
15,Cc1cc(C(=O)N2CCCc3ccccc32)n[nH]1 [CBK200346],117.194
16,COCCNc1nccnc1-c1cccs1 [CBK036739],83.2583
17,O=C(NC(Cc1ccccc1)N1C(=O)c2ccccc2C1=O)N1CCCc2ccccc21 (stereo not shown) [CBK265551],81.3967
18,O=C(Nc1ccccc1[N+](=O)[O-])C1(c2ccccc2)CCN(S(=O)(=O)c2ccccc2)CC1 [CBK267796],90.3023
19,CCC(Sc1nc2ccc(F)cc2[nH]1)C(=O)O (stereo not shown) [CBK287174],88.7304
20,COc1cc2c(cc1OC)CN(CC(O)COc1cccc3c1CCCC3)CC2 (stereo not shown) [CBK003828],108.225
21,Cc1ccc(Nc2cc(-c3ccsc3)ncn2)cc1NS(C)(=O)=O [CBK091149],63.3938
22,Nc1nc2cccnc2cc1-c1cccc(C(F)(F)F)c1 [CBK081200],87.4227
23,CSc1ncccc1C(=O)NCc1ccc(NC(C)=O)cc1 [CBK305009],82.5041
24,CCn1c(SCC(=O)Nc2ccc(C#N)cc2)nnc1-c1ccncc1 [CBK270102],109.744
25,COc1ccc(-c2cnc(NCCOc3ccccc3)c(C(=O)NCC3COc4ccccc4O3)c2)cc1 (stereo not shown) [CBK076332],85.9183
